Experimental data published in PubChem BioAssay AID686979 (National Center for Advancing Translational Sciences (NCATS), 2013).
Among all 420,000 compounds or so, about 50,000 (12%) were called active. Inconclusive results, whose numbers are uncertain, are shown with a selection of clear calls. Calls come from the whole dose curve; as a rule, active = well fitted inhibition curve with a large enough effect; inconclusive = small, poorly fitted or top-dose-only effect; inactive = flat fitted curve, though single readings scatter. No potency is given beside an inconclusive call; the fits are too rough.

Assay: qHTS for Inhibitors of human tyrosyl-DNA phosphodiesterase 1 (TDP1): qHTS in cells in presence of CPT; note: nearly all actives have a fitted effect of over 55% in size
Settings: chicken DT40 Tdp1-/-;hTDP1 cells + 20 nM CPT, ATP luminescence, 48 h; activity change, negative = growth inhibition: at 46.2 µM (top of the series) unless noted
Method in brief: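 Cell growth measured by CellTiter-Glo luminescence after a minimum 48 h, 37 C compound exposure with 20 nM CPT in Tdp1-knockout DT40 cells stably expressing hTDP1, seeded 400/well; qHTS titration format.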
% is set by controls: 0 for no effect and ±100 for the full control effect; potency is the fitted concentration of half-maximal effect; tags give direction and shape of the fitted curve.

Structure (SMILES)	Potency	activity change, negative = growth inhibition
CCOC(=O)CSC1=NC(=O)/C(=C\c2ccc(OC(C)=O)cc2)S1	active: 2.59 µM	
Cc1cc(C(=O)OCC(=O)Nc2c(Cl)cccc2Cl)c(C)o1		inactive: -2.42%
Cc1cc(C)cc(Cn2c3ccc(NC(=S)NC4CCCCC4)cc3c(=O)n2C)c1	active: 23.1 µM	
Cc1cccc2cc(CN(Cc3ccco3)C(=O)NC3CCCCC3)c(=O)[nH]c12	inconclusive [inhibitor, single point]	
CCC1CCCCN1CCCNC(=O)C1CCC(CNS(=O)(=O)c2c(C)cc(C)cc2C)CC1 (stereo not given)	active: 29.1 µM	
O=C(NCC(c1ccc(F)cc1)N1CCOCC1)c1cccc(Br)c1 (stereo not given)	inconclusive [inhibitor, partial curve]	
Cc1ccc(NC(=O)c2cccnc2)cc1C		inactive: -18.4%
Cc1cc(OC(=O)c2c(Cl)cc(Cl)cc2Cl)nc(C)n1	inconclusive [inhibitor, single point]	
CCCCN(C(=O)CSCC(=O)Nc1ccc(C)cc1)c1c(N)n(CCCC)c(=O)[nH]c1=O		inconclusive: -30% [inhibitor]
CC(NC(=O)C1CCN(S(=O)(=O)c2ccc(Br)s2)CC1)c1ccccc1 (stereo not given)	inconclusive [inhibitor, partial curve]	
O=C(Nc1ccccn1)c1cccc(S(=O)(=O)N2CCCc3ccccc32)c1	inconclusive [inhibitor, partial curve, poor fit]	
c1ccc(C(c2nnnn2C2CCCC2)N2CCN(c3nc4ccccc4s3)CC2)cc1 (stereo not given)	inconclusive [inhibitor, single point]	
Cn1c(=O)c2ccccc2n2c(CCC(=O)N3CCN(c4cccc(Cl)c4)CC3)nnc12	inconclusive [inhibitor, partial curve, poor fit]	
CCOc1ccc(NC(=O)CC2C(=O)N(c3cccc(OC)c3)C(=O)N2C2CCCCC2)cc1 (stereo not given)		inactive: -29%
CCS(=O)(=O)N1CCN(c2ccc([N+](=O)[O-])c(NCc3ccccc3)c2)CC1	inconclusive [inhibitor, single point]	
Cc1ccc(C(C)NC(=S)NC2CCCCC2)c(C)c1 (stereo not given)	inconclusive [inhibitor, single point]	
c1cc(-c2ccoc2)n2ccnc2c1		inactive: -29.5%
CC1CCc2nn(CC(=O)NCc3ccc(F)cc3)cc2C1 (stereo not given)	inconclusive [inhibitor, single point]	
C=CCC1CCC/C(=N\NS(=O)(=O)c2ccc(C)cc2)C1 (stereo not given)	inconclusive [inhibitor, single point]	
O=C1CCC(C(=O)N2CCSCC2)CN1Cc1cccc(C(F)(F)F)c1 (stereo not given)		inactive: -6.16%
COCCCn1c(SCC(=O)NCc2ccccc2)nc2ccccc2c1=O	inconclusive [inhibitor, single point]	
CN=c1scc(C)n1/N=C/c1cc(Br)c(O)c(OC)c1	inconclusive [inhibitor, single point]	
COCCn1c(C)cc(C(=O)COC(=O)/C=C/c2c(C)nn(C3CCS(=O)(=O)C3)c2Cl)c1C (stereo not given)	inconclusive [inhibitor, single point]	

Structure (SMILES)	Potency	activity change, negative = growth inhibition
O=S(=O)(c1ccccc1)N1N=C(c2cccs2)CC1c1cccc(O)c1 (stereo not given)	inconclusive [inhibitor, single point]	
CCOC(=O)c1ccc(NC(=S)N(CCCN2CCCC2)Cc2cccs2)cc1	inconclusive [inhibitor, single point]	
CCN(Cc1ccccc1)C(=O)Cn1c(=O)oc2ccccc21		inactive: -10.5%
Cc1ccc(-c2cc3nc(-c4ccccc4)cc(NCCCO)n3n2)cc1	inconclusive [inhibitor, single point]	
Cc1ccc(Nc2c(-c3ccc(C)o3)nc3ccccn23)cc1	inconclusive [inhibitor, single point]	
CC1Cc2ccccc2N1S(=O)(=O)c1cnc(Cl)c(Br)c1 (stereo not given)	inconclusive [inhibitor, single point]	
Cc1cc(C)cc(N2C(=O)CC(c3ccc(C(F)(F)F)cc3)C3=C2COC3=O)c1 (stereo not given)		inactive: 5.2%
COc1ccccc1C(=O)Nc1cc(-c2cccc(Br)c2)nn1-c1ccccc1	active: 14.6 µM	
COc1ccc2c(C)c(CC(=O)NCCc3ccccc3)c(=O)oc2c1OC		inactive: -0.187%
COc1ccccc1N1CCN(C(c2cc3ccc(C)cc3[nH]c2=O)c2nnnn2C2CCCC2)CC1 (stereo not given)	inconclusive [inhibitor, single point]	
COc1ccc(C)cc1/C=C/C(=O)N1CCN(S(=O)(=O)c2cccs2)CC1	active: 20.6 µM	
COc1ccc(Cl)cc1NC(=O)C(C)n1nnc2sc3c(c2c1=O)CCCC3 (stereo not given)	active: 20.6 µM	
CN(C)/N=C/c1ccc(Sc2ccc([N+](=O)[O-])cc2[N+](=O)[O-])o1	inconclusive [inhibitor, single point]	
Cc1ccc(-n2nnnc2SCC(=O)c2ccc3c(c2)NC(=O)CO3)c(C)c1	inconclusive [inhibitor, partial curve]	
CCOc1ccc2c(c1)s/c(=N\S(=O)(=O)c1ccc(OC)cc1)n2C(F)F	inconclusive [inhibitor, single point]	
O=C(Nc1ccccc1)OCCOc1ccc(Cl)cc1Cl		inconclusive: -19.6% [inhibitor]
CCCCCCCOC(=O)C[N+](C)(C)CCOC1CC2CCC1(C)C2(C)C (stereo not given)	active: 1.46 µM	
COc1ccc(Cn2c(SCC(=O)NCc3ccccc3)nc3ccccc32)cc1	inconclusive [inhibitor, full curve, poor fit]	
CCNC(=O)CC1C(=O)N(CC)C(=S)N1NC(=O)c1ccc(Cl)cc1 (stereo not given)		inactive: 2.69%
COc1cc(C(=O)N[C@H](C(=O)OCC(=O)NC2CCCCCC2)C(C)C)cc(OC)c1OC	inconclusive [inhibitor, single point]	
CCc1c(N)nc(N)nc1Nc1ccccc1Cl	active: 18.4 µM	
O=C(CSc1cccc(C(F)(F)F)c1)Nc1ccc(N2CCOCC2)cc1	inconclusive [inhibitor, single point]	
